# Reference: ChEMBL document CHEMBL4888484, “Replenishing the malaria drug discovery pipeline: Screening and hit evaluation of the MMV Hit Generation Library 1 (HGL1) against asexual blood stage Plasmodium falciparum ,using a nano luciferase reporter read-out” (2022)
# About 410 (8.5%) of roughly 4,800 compounds showed an effect of 50% or more. The list shows a part of the results.
# Tested on: Plasmodium falciparum
# Experiment: Confirmatory screen in NF54 pLDH assay, in single point, at 2uM, 72h
# Type: functional, Erythrocyte
# Settings: timepoint 72 hour
row,SMILES,% Inhibition [%]
1,O=C(c1cnc2ccc(F)cc2c1N1CCC(Cc2ccccc2)CC1)N1CCCC1,8
2,O=C(NC1CCCC1)N1CCN(S(=O)(=O)c2cccc(F)c2)CC1,2
3,Cc1cc(C)n(Cc2csc(C3CCCCC3)n2)n1,-9
4,C[C@@H](Cn1cc(Br)cn1)c1nnc(Nc2ccn(Cc3c(F)cccc3Cl)n2)s1,14
5,COc1cc(CNCCN2CCOCC2)ccc1OCc1cccc(C)c1,7
6,C1CN(c2nc3nonc3nc2N2CCOCC2)CCO1,-4
7,CNC(=O)Cc1c(Cl)cccc1Cl,4
8,COc1ccccc1CNC(=O)c1cnn2c(-c3ccc(Cl)cc3)ccnc12,11
9,CC(=O)N(c1ccccc1)[C@H]1C[C@@H](C)N(C(=O)C(F)(F)F)c2ccccc21,12
10,CN([C@H]1CCc2ccccc21)S(=O)(=O)c1ccc2c(c1)CCC2,7
11,CN(C(=O)c1ccc(OCC(F)(F)F)nc1)C1(C#N)CCC1,5
12,COc1ccccc1N1CCN(c2nc(Nc3ccc(F)cc3)c3nc[nH]c3n2)CC1,-14
13,Cc1cnccc1NCCNC1CCN(c2ccc(Cl)cc2)CC1,96
14,O=C(Nc1ccc2c(c1)OCO2)c1c(-c2ccc(Cl)cc2)nc2n1CCS2(=O)=O,6
15,O=C(Cc1ccccc1)Nc1c2c(nc3c1CCC3)CCCC2,8
16,Cc1cc(-n2nnc3ccccc32)nc(C)n1,3
17,CN(Cc1ccn(C)n1)C(=O)c1cc(S(=O)(=O)N(C)C)c(Cl)cc1Cl,8
18,Cc1c(S(=O)(=O)N2CCC[C@H](C(=O)NC3CC3)C2)cnn1C,5
19,Cc1cc(CNC(=O)Nc2cnn(-c3ncccc3C#N)c2)n(C)n1,7
20,Oc1nc(N2CCOC3(CCCC3)C2)ncc1F,53
21,CC(C)[C@H](NC(=O)NCCc1ncnn1C)c1ccccc1Cl,8
22,COc1c(Cl)cc(Cl)cc1CNC(C)C,10
23,CNc1nc(NCc2ccccc2)nc2ccccc12,91
24,COC(=O)[C@@H]1C[C@H](O)CCN1C(=O)OC(C)(C)C,7
25,CN(Cc1ccncc1)Cc1ccc2c(c1)CCO2,-3
26,O=C(CCc1ccc(F)cc1)Nc1nccc(-c2ccco2)n1,6

row,SMILES,% Inhibition [%]
1,COC(=O)c1ncn(CNC2(c3ccc(Cl)cc3)CCCC2)n1,9
2,Cc1ccc(S(=O)(=O)N(CC(=O)NC2CCN(C)CC2)c2cccc(Cl)c2)cc1,2
3,COc1ccc(O)c([C@H]2Nc3ccccc3-n3c(-c4ccc(C)cc4)c4c(=O)n(C)c(=O)n(C)c4c32)c1,-2
4,O=C(Cc1cnn(-c2ccccc2)c1)Nc1ccc2[nH]c(=O)[nH]c2c1,10
5,Cc1nn(C)c2c(N3CCOCC3)nc(C3CC3)nc12,0
6,Cc1cc(NC(=O)Cn2c(=O)n(CCc3ccccc3)c(=O)c3ccccc32)no1,13
7,Cc1ccc(-c2ccc(=O)n(CCC(=O)N3CCN(C4CCCCC4)CC3)n2)cc1,0
8,Cc1ccc(C(=O)Nc2noc(-c3ccc(C)cc3)c2-c2ccccc2Cl)cc1,-15
9,COc1cc(-c2nc(-c3ccc(F)cc3)c(-c3ccc(F)cc3)[nH]2)cc2c1OCO2,5
10,Cc1ccc(S(=O)(=O)c2c(NS(=O)(=O)c3ccccc3)n(CCc3ccccc3)c3nc4ccccc4nc23)cc1,102
11,COc1ccc(S(=O)(=O)n2[nH]c(=O)c(CCO)c2C)cc1,15
12,COc1ccc(CCNC(=O)c2cc3n(n2)CCN(Cc2cccc(F)c2)C3=O)cc1OC,17
13,C#CCOc1ccc2ccccc2c1[C@@H]1NC(=O)c2cccnc2N1,6
14,CN(C)/C=C/c1c(C#N)c(=O)ncn1Cc1ccccc1,8
15,O=C(C[C@H]1CCN(S(=O)(=O)c2ccc(F)c(F)c2)C1)NCc1ccccc1,-18
16,O=C(C[C@H]1CCN(C(=O)c2ccoc2)C1)NC1CC1,-1
17,O=C1c2ccccc2C(=O)N1Cc1cnc(N2CCCCC2)s1,-1
18,Cc1cc[n+]2c(-c3ccccc3)cc(-c3ccccc3)nc2c1,50
19,CCOC[C@@H](O)CN(Cc1c(-c2ccccc2)noc1N1CCC(C)CC1)CC1CC1,-9
20,O=C(N[C@H](c1ccccc1)C1CCC1)N1CCOC2(CCC2)C1,4
21,Cc1nnc(NC(=O)C(C)(C)S(=O)(=O)C2CC2)n1C1CC1,0
22,C=CCN=C(NCc1nccn1C)NC1CCC(C)CC1 (stereo not drawn),-4
23,O=C(Nc1c(S(=O)(=O)c2ccccc2)c2nc3ccccc3nc2n1CCc1ccccc1)c1ccc(Cl)cc1,96
24,O=C(O)[C@@H]1CCCN1c1ncc(C(F)(F)F)cc1Cl,1
25,CCOc1cc(=O)c(C(=O)N2CCC(C)CC2)nn1-c1cc(OC)cc(OC)c1,5
26,Cc1ccc(C)c(-c2nc(Cn3c(=O)c4c(C)cc(C)nc4n(C)c3=O)c(C)o2)c1,3

row,SMILES,% Inhibition [%]
1,Cc1cccc(NC(=O)NCCn2nnc3cc(S(=O)(=O)N4CCCC4)ccc32)c1C,12
2,COc1ccc(CN2CCC(C(=O)NCCCN3CCOCC3)CC2)c(OC)c1,9
3,COc1cccc(CNC(=O)c2sc(Nc3ccc(C)cc3C)nc2C)c1,-18
4,Cc1nc(-c2ccccc2)cc2nn(CC(=O)N3CCOCC3)c(=O)n12,-17
5,CC(C)Nc1nc2nonc2n2cnnc12,90
6,CN(C)c1cc(C(=O)N2CCOC3CCCCC32)ccn1 (stereo not drawn),3
7,Cc1ccc(NC(=O)COC(=O)c2ccc3c(c2)N=S=N3)cc1,-24
8,O=C(Nc1ccc(Cl)cc1)n1c(=S)oc2cc(Br)ccc21,2
9,Cc1nccn1-c1ncc(NC(=O)Nc2ccccc2)cn1,6
10,O=C(Nc1cccc2cccnc12)c1ccccn1,87
11,CCCCC1NC(=O)N([C@@H]2CCC(=O)N[C@H]2c2ccccc2)C1=O (stereo partly drawn),3
12,CC(=O)c1ccc(S(=O)(=O)N2CCC(C)(C(=O)NCc3ccc4c(c3)OCO4)CC2)cc1,8
13,O=S(=O)(c1ccc(F)c(Cl)c1)N1CC[C@H](Oc2ccncc2Cl)C1,89
14,COc1ccccc1CNCCNC(=O)c1ccncc1,9
15,O=C(O)c1cc(N2CCN(c3ccccc3F)CC2)ccc1NC(=O)C1CCC1,1
16,CC1(C)CC[C@H](NC(=O)CCNc2ncccn2)c2ccccc21,-3
17,O=C(CNC(=O)c1ccc(Br)cc1)NC1CCCC1O (stereo not drawn),5
18,CC[C@H](C)N(CCC(=O)N1CCOCC1)C(=O)c1cc2n(n1)CCCN(Cc1ccccc1)C2=O,6
19,CC(C)C(=O)NCC(=O)Nc1ccc(C(F)(F)F)cc1,-16
20,CN(C)c1ccc(-c2nc([C@H]3CCOC3)cs2)cc1,9
21,O=C(Nc1ccc(F)cc1F)[C@@H]1CCCN1C(=O)c1ccco1,11
22,C[C@H](NC(=O)CC1(C)CCCCC1)c1cnn(C)c1,-5
23,O=C1CN(CC[C@H]2CCCO2)CCN1c1cccs1,-10
24,Cc1ccc(CN2CCC3(CC2)C[C@@H](C(=O)NCc2ccccn2)N(C)C3)s1,10
25,CCC(=O)N(Cc1ccc(-c2ccc(Cl)cc2)o1)[C@H]1CCS(=O)(=O)C1,42
26,O=C1CN(C(=O)Cn2c(-c3ccccc3)cc3ccccc32)c2ccccc2N1,11

row,SMILES,% Inhibition [%]
1,O=C1CC(C(=O)N2CCOCC2)C(c2ccc3c(c2)OCCO3)O1 (stereo not drawn),11
2,NC[C@H]1CN(CCc2cccc(Cl)c2)C(=O)O1,-13
3,COc1cc(CN(C)[C@H]2CCc3nnc(C4CCOCC4)n3CC2)cc(OC)c1,1
4,O=S(=O)(Cc1cc(Cl)cc(Cl)c1)NCCCCn1ccnc1,-11
5,O=C(CN1CCN(c2ccccc2F)CC1)c1ccc2c(c1)OCO2,7
6,O=C1CC(c2cccc(Br)c2)N(S(=O)Oc2ccccc2)c2ccccc21 (stereo not drawn),1
7,Cc1csc([C@@H]2CN(c3cnccn3)CCO2)n1,-1
8,COCc1ccc(C(=O)N(c2ccc(F)cn2)C2CCOCC2)cc1,-12
9,Cc1noc(CCNC(=O)N2CCCCC[C@H]2c2ccc(C)o2)n1,-1
10,Cn1cc(C(=O)c2nc(-c3ccccc3Cl)no2)cn1,-5
11,Cc1ccc(C(=O)N(C(=O)c2ccc(C)cc2C)c2ccc(Br)cn2)c(C)c1,-16
12,CCOc1cc(N2CCOCC2)c(OCC)cc1NC(=O)c1ccc(C)c(NC(=O)c2ccco2)c1,6
13,Clc1ccc(OCCNCCOc2ccc(Cl)cc2Cl)c(Cl)c1,11
14,Cc1noc(-c2ccc(C(C)(C)C)cc2)c1C(=O)NCCOc1ccccc1,8
15,Cc1noc(C)c1S(=O)(=O)Nc1cc(-c2nnc3n2CCCCC3)c(F)cc1F,4
16,COc1nc(C)nc2c(CN(C)C)c(C)[nH]c12,11
17,Oc1ccc(-c2nc(-c3c[nH]c4ccccc34)cs2)cc1,15
18,CN1C2(c3ccccc3)C3C(=O)N(c4ccccc4)C(=O)C3C1(c1ccccc1)C1C(=O)N(c3ccccc3)C(=O)C12 (stereo not drawn),8
19,O=C1c2ccccc2N[C@]2(C(=O)Nc3ccccc32)N1c1ccc2c(c1)OCO2,-25
20,CC1CC(Nc2ncnc3cc(Br)ccc23)CCN1C (stereo not drawn),95
21,O=C(O)c1nccc(C(F)(F)F)c1Cl,-7
22,CCOc1cc(-c2nn3c([C@H]4CCCN(C)C4)nnc3s2)cc(OCC)c1OCC,2
23,COc1ccc2c(O)cc(-c3ccccc3)nc2c1,1
24,CCOC(=O)N1CCN(C(=O)C2c3ccccc3C(=O)N(C3CCCCC3)C2c2ccc(OC)cc2)CC1 (stereo not drawn),9
25,CCn1nc(-n2cnnc2)c(NS(=O)(=O)c2cccc(Cl)c2)c1C,3
